# Assay results from PubChem BioAssay AID651820 (National Center for Advancing Translational Sciences (NCATS), 2012).
# About 12,000 (3.5%) of roughly 340,000 compounds were called active. The shares of active, inactive and inconclusive entries below differ from those in the screen. Calls follow the shape of the dose curve; as a rule, active = well fitted inhibition curve with a large enough effect; inconclusive = small, poorly fitted or top-dose-only effect, or another doubt; inactive = no such curve, though single readings can be large or run the other way. No potency is given beside an inconclusive call; the fits are too rough.
# Assay: qHTS Assay for Inhibitors of Hepatitis C Virus (HCV)
# Conditions: Huh7.5.1 HCVcc-Cre (HCVcc is cell-culture hepatitis C virus) infection, luciferase reporter, 44 h; activity change, negative = inhibition: at 41.8 µM (top of the series)
# Summary of the method: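 Seed cells (1,000/well) for 4 h; treat with compound and infect with HCVcc-Cre, moi about 0.5. Incubate 44 h, then detect luciferase activity.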
# % is scaled to controls: 0 for no effect and ±100 for the full control effect; potency is read from the fitted curve at half-maximal effect; tags tell the direction and shape of the fitted curve.
SMILES,"activity change, negative = inhibition",Potency
Cn1c(=NC(=O)c2ccccc2[N+](=O)[O-])sc2cccc(F)c21,inactive: -5.37%,–
COc1cccc(C2(C)NC(=O)N(CC(=O)Nc3ccc(N4CCOCC4)cc3)C2=O)c1 (stereo not given),inactive: -12.3%,–
CCc1ccc2oc(=O)cc(CN(C)Cc3ccccc3)c2c1,–,"inconclusive [inhibitor, single point]"
Cc1ccc2[nH]c(C(=O)O)c(-c3ccccc3)c2c1,inactive: -2.97%,–
CC(=O)c1c[nH]c(C(=O)Nc2ccc(N3CCCCCC3)cc2)c1,–,"inconclusive [inhibitor, partial curve]"
COc1ccc(NC(=O)Nc2c(O)ccc3ccccc23)cc1,–,"inconclusive [inhibitor, single point]"
Cc1ccc(NC(=O)C2=CC(c3ccc(C)cc3)=NS(=O)(=O)N2C)cc1,–,"inconclusive [inhibitor, single point]"
S=C(NCc1ccc(Cl)cc1Cl)NC1CCCCC1,–,"inconclusive [inhibitor, single point]"
COc1ccc2nc(N=NC3=C(O)CC(C)(C)CC3=O)sc2c1,–,"inconclusive [inhibitor, full curve, poor fit]"
Oc1c(Br)cc(CNC2CCCCC2)cc1Br,–,"inconclusive [inhibitor, single point]"
FC(F)(F)c1nc(N2CCCC2)ncc1-c1nnnn1-c1ccccc1,–,active: 11.2 µM
Cc1ccc(OCC(=O)NCCNC(=O)c2ccncc2)cc1,inactive: 5.39%,–
CC(NC(=O)/C(C#N)=C/c1cn(-c2ccccc2)nc1-c1ccc(F)cc1)c1ccccc1 (stereo not given),inactive: -5.09%,–
Cc1ccccc1C(=O)/C(C#N)=N/Nc1c(C)n(C)n(-c2ccccc2)c1=O,–,"inconclusive [inhibitor, partial curve]"
CC(C)c1cc(=O)oc2c3c4c(cc12)CCCN4CCC3,–,"inconclusive [inhibitor, full curve, poor fit]"
O=C(NCc1ccc2c(c1)OCO2)C1CCN(c2ccc(S(=O)(=O)N3CCCC3)cc2)CC1,–,"inconclusive [inhibitor, single point]"
COc1ccc2c(c1)C(c1cccs1)=NNC(c1ccncc1)=N2,–,active: 11.2 µM
O=C1C2C3C=CC(C3=C(c3ccccc3)c3ccccc3)C2C(=O)N1CCO (stereo not given),inactive: -16.4%,–
C=CCC1(CC=C)CCCN1C(=O)c1cc(COc2cccc(OC)c2)on1,–,active: 14.1 µM
COc1ccc(CCn2c(SCCN3CCCCC3)nc3ccccc3c2=O)cc1OC,–,"inconclusive [inhibitor, partial curve]"
Nc1n[nH]c2cc(=O)n(-c3ccc(Cl)cc3)nc12,–,"inconclusive [inhibitor, single point]"
O=C(c1cccnc1Cl)N1CCOCC1,inactive: 14.1%,–
O=C(CC1Nc2ccccc2NC1=O)Nc1cc(Cl)cc(Cl)c1 (stereo not given),–,"inconclusive [inhibitor, single point]"

SMILES,"activity change, negative = inhibition",Potency
CC(C)Cn1c(N)c(C(=O)CSc2nc3ncc(Cl)cc3[nH]2)c(=O)n(C)c1=O,–,"inconclusive [inhibitor, partial curve]"
O=C(COc1ccc(Cl)cc1Cl)N1CCCN(C(=O)COc2ccc(Cl)cc2Cl)CC1,–,"inconclusive [inhibitor, partial curve]"
COc1ccc(C(CC(=O)c2ccccc2)S(=O)(=O)c2ccc(C)cc2)cc1 (stereo not given),–,"inconclusive [inhibitor, partial curve]"
O=C(NCc1ccco1)c1ccc(Oc2ccccc2)cc1,–,"inconclusive [inhibitor, single point]"
O=C(N/N=C\c1cccnc1)c1ccc(Br)s1,–,"inconclusive [inhibitor, single point]"
Cc1cccc(C)c1NC(=O)CCN1C(=O)C2C3CCC(C3)C2C1=O (stereo not given),inactive: 10.5%,–
CC1CN(S(=O)(=O)c2cc(C(=O)N(C)Cc3cccs3)ccc2Cl)CC(C)O1 (stereo not given),–,"inconclusive [inhibitor, single point]"
CCCCCCOC(=O)Nc1ccc(S(=O)(=O)Nc2cccc([N+](=O)[O-])c2)cc1,inactive: 9%,–
COc1ccc2[nH]c3c(c2c1)CCN1C(=O)C(CC(=O)NCc2ccco2)C[C@H](C(=O)N(C(C)C)C(C)C)[C@@]31C (stereo not given in full),–,"inconclusive [inhibitor, single point]"
COC(=O)c1ccc(N2C(=O)CC(N3CCN(c4ccccc4)CC3)C2=O)cc1 (stereo not given),inactive: 17.7%,–
CCCc1nc(SCC(=O)N2CCC(C)CC2)c2c(=O)n(C)c(=O)n(C)c2n1,–,"inconclusive [inhibitor, single point]"
CSc1ccc(CNc2cccc3ccccc23)cc1,–,"inconclusive [inhibitor, single point]"
CCOc1ccc(NC(=O)COC(=O)Cc2ccsc2)cc1,–,"inconclusive [inhibitor, single point]"
CCCC(C)c1nnc(NC(=O)COc2ccc3c(c2)OCO3)s1 (stereo not given),inactive: 2.95%,–
COc1ccccc1-c1c(C)nn2c(N3CCN(Cc4ccccc4)CC3)cc(C)nc12,–,"inconclusive [inhibitor, partial curve]"
Cc1cccc(-c2ncc(CN3CCN(CCC(C)C)C(CCO)C3)cn2)c1 (stereo not given),–,"inconclusive [inhibitor, partial curve, poor fit]"
Cc1ccc(C2C3=C(CC(C)(C)CC3=O)NC3=C2C(=O)c2ccccc23)cc1 (stereo not given),–,"inconclusive [inhibitor, partial curve]"
COc1ccc(C(=O)N2CCNC(=O)C2CC(=O)Nc2cc(Cl)ccc2OC)cc1 (stereo not given),inactive: 5.71%,–
COc1ccc(CCn2c(C(C)C)nc3c(c(=O)c4ccccc4n3C)c2=O)cc1,–,"inconclusive [inhibitor, single point]"
CCc1cc(=O)oc2cc(C)cc(OC(C)C(=O)NCc3ccncc3)c12 (stereo not given),–,"inconclusive [inhibitor, single point]"
COc1ccc(C(=O)N(NC(=O)Oc2ccccc2)C(C)(C)C)cc1,inactive: -9.84%,–
CCOc1ccc(-n2c(SCc3ccc([N+](=O)[O-])cc3)nnc2-c2ccccc2)cc1,inactive: -29.7%,–
